# Experimental data as given in article PMC4336329 (PLoS ONE, 2015).
# Hit rate of the full screen: of about 310,000 compounds, about 2,200 (0.71%) showed an effect of 50% or more. The effect is printed as a negative number. This is one part of the list.
# Target: human ether-à-go-go-related gene (hERG) potassium channel (human, UniProt Q12809)
# Assay: primary screen, population patch clamp on CHO cells stably expressing hERG
# Chain of human ether-à-go-go-related gene (hERG) potassium channel (Q12809 whole entry, looked up): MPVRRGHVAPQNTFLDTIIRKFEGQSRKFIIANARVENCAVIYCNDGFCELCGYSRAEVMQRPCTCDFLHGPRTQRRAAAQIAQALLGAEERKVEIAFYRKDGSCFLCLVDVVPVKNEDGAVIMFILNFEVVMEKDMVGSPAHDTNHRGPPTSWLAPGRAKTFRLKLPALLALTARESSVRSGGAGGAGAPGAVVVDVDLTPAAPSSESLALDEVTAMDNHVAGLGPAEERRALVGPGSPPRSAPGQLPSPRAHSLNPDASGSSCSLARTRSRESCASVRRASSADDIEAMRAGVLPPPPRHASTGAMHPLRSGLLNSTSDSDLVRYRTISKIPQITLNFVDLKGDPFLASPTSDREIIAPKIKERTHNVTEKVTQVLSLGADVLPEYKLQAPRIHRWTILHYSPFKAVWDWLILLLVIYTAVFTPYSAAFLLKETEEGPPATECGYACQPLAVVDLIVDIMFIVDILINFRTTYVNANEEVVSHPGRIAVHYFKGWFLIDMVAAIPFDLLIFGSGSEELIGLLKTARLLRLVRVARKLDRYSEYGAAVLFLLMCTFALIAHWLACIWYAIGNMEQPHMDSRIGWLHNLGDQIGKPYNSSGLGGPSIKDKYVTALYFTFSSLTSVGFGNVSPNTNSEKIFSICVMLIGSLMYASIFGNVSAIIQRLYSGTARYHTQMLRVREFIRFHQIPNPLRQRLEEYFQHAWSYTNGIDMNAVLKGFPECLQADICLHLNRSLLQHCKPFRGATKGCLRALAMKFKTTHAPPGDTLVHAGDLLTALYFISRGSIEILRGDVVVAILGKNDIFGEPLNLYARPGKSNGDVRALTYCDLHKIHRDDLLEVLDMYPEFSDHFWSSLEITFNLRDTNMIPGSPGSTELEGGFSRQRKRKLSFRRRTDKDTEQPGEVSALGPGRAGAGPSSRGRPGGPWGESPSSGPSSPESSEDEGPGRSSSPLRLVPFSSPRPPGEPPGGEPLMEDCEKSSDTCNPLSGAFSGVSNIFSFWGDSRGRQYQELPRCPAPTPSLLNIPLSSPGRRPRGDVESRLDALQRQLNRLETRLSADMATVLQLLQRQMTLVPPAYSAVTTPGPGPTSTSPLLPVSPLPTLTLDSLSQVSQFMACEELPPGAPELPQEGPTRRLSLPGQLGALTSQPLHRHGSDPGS
row,SMILES,"hERG current change (%, negative = inhibition) at 1uM [%]"
1,Cc1ccccc1-c1noc(C23CC4CC(CC(C4)C2)C3)n1,7.35
2,COc1ccc(CCC(=O)OCC(=O)Nc2ccc3[nH]c(=O)[nH]c3c2)cc1,1.47
3,CC(=O)Nc1nnc(Cc2c[nH]c3ccccc23)s1,11.8
4,Cc1cc(=O)n2[nH]c(C(F)(F)F)c(-c3ccccc3)c2n1,8.36
5,Cc1cccn2c(=O)c3cc(C(=O)NCCc4ccccc4)c(=N)n(CC4CCCO4)c3nc12 (stereo not drawn),-91
6,COc1ccc(C(C)C)cc1S(=O)(=O)N1CCN(C)CC1,15.2
7,CC(OC(=O)c1cnccn1)C(=O)Nc1nc(-c2cccc([N+](=O)[O-])c2)cs1 (stereo not drawn),8.07
8,COc1ccc2c(c1OC)C(=O)N(c1ccccn1)C2,3.36
9,COc1ccc(C(CNC(=O)CCC(=O)c2ccc(C)s2)N2CCOCC2)cc1 (stereo not drawn),8.49
10,O=C(Nc1ccc(F)cc1F)c1ccc(S(=O)(=O)N2CCCCC2)cc1,7.73
11,COc1ccc(SN=C2C(C)=CC(=O)C=C2C)cc1,13.8
12,Cc1ccc(NC(=O)Cc2ccsc2)cc1Cl,7.85
13,CC(C)(CO)N=Cc1c(O)[nH]c2ccccc12,-11.6
14,Cc1ccccc1C(OCCN(C)C)C1CCCCC1.O=C(O)C(=O)O (stereo not drawn),7.86
15,CCn1c(SCC(=O)N(C)CCC#N)nc2cc(S(=O)(=O)N3CCOCC3)ccc21,15.2
16,CCn1nc(C(=O)OCC(=O)c2cc(C)n(Cc3cccs3)c2C)c2ccccc2c1=O,12.3
17,CC(C)(C)OC(=O)N/N=C\c1ccc[nH]1,10.1
18,O=C(C1CCCC1)N1CCN(S(=O)(=O)c2ccc(F)c(F)c2F)CC1,9.66
19,COC(=O)c1cc(NS(=O)(=O)c2ccc(C)c3ccccc23)ccc1N1CCOCC1,5.1
20,COc1ccc(OC)c2[nH]c(=O)c(CCNC(=O)c3ccc4c(c3)OCO4)cc12,9.06
21,NNC(=O)c1sc2cc(C(F)(F)F)cnc2c1-c1cccs1,18.8

row,SMILES,"hERG current change (%, negative = inhibition) at 1uM [%]"
1,CCOC(=O)[C@H]1[C@H]2COc3cc(OC)ccc3[C@@H]2N2C(=O)N(c3cccc(Cl)c3)C(=O)[C@@]12C,5.19
2,O=S(=O)(c1ccc(Br)cc1)N1CCCc2ccccc21,10.4
3,O=C(CN1CCN(C(=O)N2CCOCC2)CC1)Nc1ccc(Br)cc1,-7.33
4,O=c1[nH]c(NCc2ccco2)nnc1Cc1ccccc1Cl,10.7
5,Cc1nn(Cc2ccccc2)c(=O)c2nn(-c3ccc(Cl)cc3)c(C)c12,10.9
6,O=C(OCC(=O)N1CCCc2ccccc21)c1ccc(C(F)(F)F)cc1,-1.32
7,Cc1cc2c(cc1C)NC1(C(=O)Nc3ccccc31)C1=C(CC(C)(C)CC1=O)N2 (stereo not drawn),9.28
8,COc1ccc(N2C(=NC(=O)CCC3CCCC3)SC3CS(=O)(=O)CC32)cc1 (stereo not drawn),16.2
9,COc1ccccc1NS(=O)(=O)c1ccc(Cl)cc1,4.63
10,CCCOCC1CC2(SC(=Nc3ccc(C)cc3)NC2=O)C(=O)O1 (stereo not drawn),9.97
11,Cn1c(=O)c(=O)n(C)c2cc(N3CCCC3)c(NS(=O)(=O)c3ccc(Cl)cc3)cc21,-18.4
12,Cc1cc(/C=C2\NC(=S)NC2=O)c(C)n1-c1cccnc1,8.06
13,C=C(C)[C@@H]1[C@H]2OC(=O)[C@@H]1[C@]1(O)C[C@H]3O[C@]34C(=O)O[C@H]2[C@]14C.CC(C)(O)[C@@H]1[C@H]2OC(=O)[C@@H]1[C@]1(O)C[C@H]3O[C@]34C(=O)O[C@H]2[C@]14C,0.134
14,COc1cc(NS(=O)(=O)c2ccc(NC(=S)NC(=O)c3sc4ccccc4c3Cl)cc2)nc(OC)n1,2.44
15,CCCn1nnc(NC(=O)c2cccnc2Cl)n1,12
16,COCCN1CN=C(Nc2nc3ccccc3o2)NC1,11
17,COC(=O)C1=C(C)N(C)C(=O)NC1c1cc(Cl)cc(Cl)c1OC (stereo not drawn),-1.95
18,O=C(O)CC/C(=C\c1ccc(N2CCCC2)c([N+](=O)[O-])c1)c1nc2ccccc2s1,24.9
19,Cc1onc(-c2c(F)cccc2Cl)c1C(=O)NCCO,4.8
20,Cc1ccc2c(c1)N(CC(=O)N1CCN(c3nc4ccccc4s3)CC1)C(=O)C(C)O2 (stereo not drawn),-8.35
21,CCN1CCN(S(=O)(=O)c2cc(C)c(OC)cc2C)CC1,5.91
